Experimental data: PubChem BioAssay AID485290 (National Center for Advancing Translational Sciences (NCATS), 2010)
Several values for one entry are separate records, joined by “and”; a condition that tells them apart may be missing. Identical values can stand only once. About 990 (0.28%) of roughly 350,000 compounds were called active. Inconclusive means that the source gave no clear call. Such entries were picked first, then a sample of the others. Calls come from the whole dose curve; as a rule, active = well fitted inhibition curve with a large enough effect; inconclusive = small, poorly fitted or top-dose-only effect; inactive = no such curve, though single readings can be large or run the other way. Potencies beside an inconclusive call are fits to weak or partial responses and may not hold up. A structure can be active in one record and inactive in another.

target: Tyrosyl-DNA phosphodiesterase 1 (Homo sapiens) (UniProt Q9NUW8); assay: qHTS Assay for Inhibitors of Tyrosyl-DNA Phosphodiesterase (TDP1); conditions: recombinant TDP1, AlphaScreen DNA substrate cleavage; activity change, negative = inhibition: at 130 µM (top of the series) unless noted; note: nearly all actives have a fitted effect of over 40% in size
Outline: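 Recombinant E. coli-expressed Tdp1 (1 nM) preincubated with compound 15 min at RT, then 5'-biotin/3'-phosphotyrosine-FITC DNA substrate (15 nM) added for 5 min. AlphaScreen beads (10 ug/ml) added, 10 min RT; tyrosine-FITC cleavage read as signal loss.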
% is set by controls: 0 for no effect and ±100 for the full control effect; potency is the fitted concentration of half-maximal effect; tags give direction and shape of the fitted curve.

Sequence of UniProt Q9NUW8 (Q9NUW8 whole entry, looked up): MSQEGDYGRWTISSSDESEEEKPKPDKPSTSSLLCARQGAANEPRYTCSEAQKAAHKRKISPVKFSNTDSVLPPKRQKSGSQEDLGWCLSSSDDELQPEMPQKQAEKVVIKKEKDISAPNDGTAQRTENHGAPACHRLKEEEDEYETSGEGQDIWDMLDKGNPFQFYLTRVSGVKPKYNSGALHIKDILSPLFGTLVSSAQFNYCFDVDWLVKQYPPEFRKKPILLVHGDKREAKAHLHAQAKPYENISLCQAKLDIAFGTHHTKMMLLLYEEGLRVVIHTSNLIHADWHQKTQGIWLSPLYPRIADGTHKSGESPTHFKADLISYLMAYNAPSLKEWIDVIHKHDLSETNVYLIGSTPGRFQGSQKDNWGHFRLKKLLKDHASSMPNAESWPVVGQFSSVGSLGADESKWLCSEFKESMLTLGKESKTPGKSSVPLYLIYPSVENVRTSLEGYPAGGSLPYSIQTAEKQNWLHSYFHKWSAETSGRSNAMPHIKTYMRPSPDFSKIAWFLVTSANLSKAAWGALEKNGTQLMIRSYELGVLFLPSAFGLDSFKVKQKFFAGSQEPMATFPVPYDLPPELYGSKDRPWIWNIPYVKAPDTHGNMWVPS

Potency, inconclusive:
COc1ccccc1NC(C)C(=O)Nc1ccc(C(C)=O)cc1 (stereo not given) 100 µM [inhibitor, single point]
Cc1ccc(NC(=O)CSc2nnc(C)c(=O)n2N)cc1 100 µM [inhibitor, single point]
Cc1oc(-c2ccc(Cl)cc2)cc1-c1nn2c(-c3ccco3)nnc2s1 14.1 µM [inhibitor, full curve]
CCn1c(SC(=O)NC2CCCCC2)nnc1-c1cccs1 2.24 µM [inhibitor, full curve]
CCc1ccc(NC(=O)c2sc(-n3nc(C)c(Cc4ccc5c(c4)OCO5)c3C)nc2C)cc1 28.2 µM [inhibitor, single point]
Cc1ncc(CO)c(/C=N/NC(=O)c2cc(O)c(O)c(O)c2)c1O 2.82 µM [inhibitor, full curve]
O=C(O)c1ccc(COc2ccccc2[N+](=O)[O-])o1 17.8 µM [inhibitor, single point]
COC(=O)c1sccc1NC(=O)CSc1cccc(Cl)c1Cl 31.6 µM [inhibitor, single point]
CC(C)C(=O)Nc1nnc(Sc2ccc(N(C)C)cc2)s1 56.2 µM [inhibitor, partial curve]
CCn1c(-c2ccoc2C)n[nH]c1=S 2.24 µM [inhibitor, full curve, poor fit]
CCCSC1=N/C(=C\c2ccc([N+](=O)[O-])o2)C(=O)S1 3.55 µM [inhibitor, full curve]
Cc1ccccc1NS(=O)(=O)c1ccc2[nH]cc(C(=O)NCCc3ccccc3)c(=O)c2c1 39.8 µM [inhibitor, partial curve]
Cc1nc(N=Nc2cc(S(=O)(=O)O)c3cc([N+](=O)[O-])cc(S(=O)(=O)O)c3c2)c(COP(=O)(O)O)c(C=O)c1O 1 µM [inhibitor, full curve] and 4.47 µM [inhibitor, full curve] and 501 nM [inhibitor, full curve]
CNCCOc1ccccc1OC(C)C 7.94 µM [inhibitor, partial curve]
Cc1ccc(-c2cc3ccccc3nc2N2CCCC2)cc1 22.4 µM [inhibitor, full curve]
COc1ccccc1NC(=O)N1CCN(C)CC1 20 µM [inhibitor, partial curve, poor fit]
O=S(=O)(c1c(Cl)sc(Cl)c1Br)N1CCCC1 0.0224 µM [inhibitor, full curve, poor fit]
O=C(COC(=O)c1ccccc1OC(F)F)Nc1ccc2[nH]c(=O)[nH]c2c1 11.2 µM [inhibitor, partial curve]
O=C1[C@@H]2[C@H](C(=O)N1O)[C@H]1C=C[C@@H]2C1 50.1 µM [inhibitor, partial curve]
CC(=O)Oc1ccc2ccc(=O)oc2c1 28.2 µM [inhibitor, single point]
CC(=O)C1=C(O)C(=O)N(Cc2ccco2)C1c1ccc(F)cc1 (stereo not given) 4.47 µM [inhibitor, full curve, poor fit]
Cn1c(-n2cccc2)c(-c2c(-c3ccccc3)[nH]c3c2c(=O)[nH]c(=O)n3C)c(=O)[nH]c1=O 28.2 µM [inhibitor, single point]
O=C(c1c(F)cccc1F)N(Cc1ccccc1)Cc1ccccc1 89.1 µM [inhibitor, single point]
C=Cc1c(C)/c2[n-]/c1=C\c1[n-]c(c(CC)c1C)/C=c1\[n-]c3c(c1C)C(=O)C(C(=O)[O-])C=3c1[n-]c(c(C)c1CCC(=O)[O-])\C=2.[Cu].[Na+].[Na+] (stereo not given) 0.158 µM [inhibitor, full curve]
COCCNC(=O)C(c1cccc(OC)c1)N(C(=O)Cn1nnc2ccccc21)c1cccnc1 (stereo not given) 35.5 µM [inhibitor, single point]
COc1ccc(CC(=O)NCC(c2cccs2)S(=O)(=O)c2ccc(Cl)cc2)cc1 (stereo not given) 1.78 µM [inhibitor, full curve]
C=CCn1c(SC(C)CC)nc(O)cc1=O (stereo not given) 2.24 µM [inhibitor, full curve]
Cc1n[nH]c(=S)n(NC(=O)/C=C/C(=O)Nn2c(=S)[nH]nc(C)c2=O)c1=O 2.51 µM [inhibitor, full curve]
O=C(O)Cc1ccc(O)c(O)c1 22.4 µM [inhibitor, single point]
Cc1c(C(=O)OCC2CCCO2)[nH]c2c1C(=O)CC(c1ccco1)C2 (stereo not given) 10 µM [inhibitor, full curve]
O=C(Nc1nc(-c2ccc3ccccc3c2)cs1)C1CCN(S(=O)(=O)c2cccs2)CC1 28.2 µM [inhibitor, single point]
O=C(COC(=O)C1CC1)Nc1ncc(Cl)cc1Cl 70.8 µM [inhibitor, single point]
CC(=O)c1cccc(NC(=O)CC2CCCC2)c1 3.16 µM [inhibitor, single point]
COc1ccc(/C(N)=N/OC(=O)Cc2ccccc2)cc1 14.1 µM [inhibitor, full curve, poor fit]
CCC(c1nnnn1C1CCCC1)N1CCN(C(=O)c2ccco2)CC1 (stereo not given) 56.2 µM [inhibitor, partial curve]
O=C(CN1CCN(c2ccc(F)cc2)CC1)Nc1ccc(-n2cnnn2)cc1 39.8 µM [inhibitor, single point]

Potency, active:
COc1ccccc1-c1cncnc1NCc1cccnc1 25.1 µM
CCC(=O)Nc1nnc(Sc2ccc(N(C)C)cc2)s1 44.7 µM
CNc1c(NC(=O)C2CCC(C)CC2)c(=O)oc2ccccc12 (stereo not given) 79.4 µM
Cc1cccc(C(=O)N/N=C/c2ccoc2)c1 28.2 µM
COc1ccc(NC(=O)COC(=O)c2cc3c(s2)CCC3)cc1 14.1 µM
O=C(NN=C1CCCC1)c1cc(O)cc(O)c1 17.8 µM
CC/C=C\C/C=C\C/C=C\CCCCCCCC(=O)O 5.01 µM
COc1ccccc1NC(=O)COC(=O)c1cc2c(s1)CCC2 10 µM
CN(C)/C=C/C=C1C(=O)CCCC1=O 22.4 µM
COc1c(O)cc(O)cc1O 20 µM
Cc1cc2nc(-c3ccc(SCc4ccc(C(=O)O)cc4)nc3)[nH]c2cc1C 22.4 µM
S=C([S-])NCCNC(=S)[S-].[Zn+2] 14.1 µM
COc1ccc(NC(=O)CSc2nc(-c3ccco3)nc3cc(=O)[nH]n23)cc1Cl 50.1 µM

Activity change, negative = inhibition, inactive:
O=C(Nc1ccc([N+](=O)[O-])cc1)N1CCCCCC1 2.53%
Cc1cccc(C(C(=O)NCc2ccc(F)cc2)N(C(=O)c2csnn2)C2CC2)c1 (stereo not given) 5.84%
O=C(OCC(=O)N1CCCc2ccccc21)c1cnc(Cl)c(Cl)c1 -0.633%
C[C@]12c3[nH]c4cc(-c5ccco5)ccc4c3CCN1C(=O)[C@@H](CC(=O)NCCC1=CCCCC1)C[C@@H]2C(=O)N1CCCCC1 5.28% [at 56.1 µM]
O=C(NNc1ccccn1)C(c1ccccc1)c1ccccc1 2.41%
Cc1ccc2oc(-c3cc(NC(=O)c4oc5ccccc5c4C)ccc3Cl)nc2c1 2.86% [at 2.28 µM]
CC1CCCN(C(=O)CN2C(=O)C(C)Oc3ccccc32)C1 (stereo not given) -7.4%
COc1ccc2cc(C3CC(c4ccco4)=NN3S(=O)(=O)c3ccccc3)c(Cl)nc2c1 (stereo not given) 0%
CCOC(=O)c1ccc(NC(=O)CCc2nc(-c3ccccc3)no2)cc1 0%
CCc1cccc(CC)c1NC(=O)NC1CCCCC1 2.82%
COc1cc(C(=O)NCCOc2cccc3cccnc23)cc(OC)c1OC 2.63%
CC1CCN(C(=O)c2[nH]cnc2C(=O)N2CCN(C(=O)OC(C)(C)C)CC2)CC1 2.65%
Cc1ccc(Oc2nnc(-c3ccccc3)c3ccccc23)cc1 2.86%
COc1ccc(-c2cnnn2-c2ccc(NC(=O)c3ccccc3OC)cc2)cc1 13%
O=S(=O)(c1ccccc1)c1nc(-c2ccco2)oc1Nc1ccccc1 2.23%
CCCCCCSc1ccc([C@@H]2[C@H]3C(=O)N(CC)C(=O)[C@H]3[C@]3(C(=O)OC)CCCCN23)cc1OC 0.018%
C=CCNCc1cccn1-c1sc2c(c1C#N)CCCC2 -0.976%
CC(C)Cc1nnc(NC(=O)CCC(=O)N2CCN(c3ccccc3)CC2)s1 1.11%
COc1ccc(OC)c(NC(=O)CSc2nnc(CNC(=O)c3cc(OC)c(OC)c(OC)c3)o2)c1 2.71%
CC(C)NC(=O)C1CCN(C2CCN(C(=O)/C=C/c3cccs3)CC2)CC1 1.4%
O=C(CSc1nnc(-c2ccncc2)o1)Nc1ccccc1Cl -3.33%
COc1ccc(-c2cc(C(=O)N(C)CC(=O)Nc3cccc(F)c3)c3ccccc3n2)cc1 -6.22%
O=C(NC(Cc1ccccc1)C(=O)O)/C(=C/c1ccc([N+](=O)[O-])cc1)NC(=O)c1ccccc1 (stereo not given) 10.4%
CC(=O)c1cccc(NC(=S)NC(=O)c2ccc(C)cc2)c1 2.35%
Cn1c(CNC(=O)CNC(=O)c2cccc(Cl)c2)cc(=O)n(C)c1=O 0.0525%
CCOc1ccc(C2C=C(c3ccc(C)cc3)Nc3nnnn32)cc1 (stereo not given) 6.25%
